Several values for one entry are separate records, joined by “and”; a condition that tells them apart may be missing. Equal values may be shown once.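 Method: 48-hour compound exposure of cells in 96-well plates, five concentrations, linear interpolation of endpoints. The concentration for 50% growth inhibition is given as GI50. At the TGI there is no net growth.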

For this experiment, the system named is NCI-H322M lung. Kind of experiment: growth of human tumour cells (NCI), 48 h.
Regarding `C=CCN=C(N/N=C/c1ccc([N+](=O)[O-])o1)NS(=O)(=O)c1cc(C(=O)Nc2ccccc2)c(Cl)cc1SCC(N)=O`, the GI50 was 16.3 µM and the TGI is 57.1 µM.

Consider `[Cl-].[Gd+3].[O-]/N=C(\c1ccccc1)c1ccccn1.[O-]/N=C(\c1ccccc1)c1ccccn1.[O-]/N=C(\c1ccccc1)c1ccccn1`, for which the GI50 was 38.7 µM and the TGI was over 100 µM.

Take `Oc1ccc(SCc2cc(O)ccc2O)cc1`: the TGI was over 100 µM.

For `CCc1cc2c(c3c1CCCC3=O)CC1(C2)Cc2cc(CC)c3c(c2C1)C(=O)CCC3`, the TGI is over 100 µM. Still for that read-out and setting: the value for `CC(C)=CC(=O)c1c(C(=O)O)nc2ccccc2[n+]1[O-]` was over 100 µM; that for `O=c1cccccc1[O-].O=c1cccccc1[O-].O=c1cccccc1[O-].[Sm+3]` was over 100 µM.

With `COc1ccc(/C(C)=C(\c2ccc(Cl)cc2)c2ccc(OCCN3CCCCCC3)cc2)cc1F`, the GI50 was 5.52 µM and the TGI is over 16.7 µM. For `CC(=O)C(C(C)=O)[C@H]1OC(C)(C)O[C@H]1[C@H]1COC(C)(C)O1`, the TGI is over 100 µM. As to `COc1ccc(OCC(O)CN2CCN(c3ccc(Cl)cc3)CC2)cc1` (configuration not stated), the GI50 is over 100 µM and the TGI was over 100 µM.

Consider `Cc1ccccc1Nc1nc2ccccc2nc1NS(=O)(=O)c1ccccc1`, for which the TGI is over 100 µM. For the molecule `c1cncc(C2ONC3=NCCN32)c1` (configuration not stated), the GI50 was 35.5 µM and the TGI is over 100 µM.

For the molecule `COCC1N=C(c2cc(OC)c(OC)c(OC)c2-c2cc3c(cc2[C@H](C)O)OCO3)O[C@H]1c1ccccc1` (some centres not stated), the TGI was over 100 µM.

Take `COc1ccc(C23OCC(Cc4cc(OC)c(OC)cc42)C3CO)cc1OC` (configuration not stated): the TGI is over 100 µM.

Turning to `O=c1[nH]c2ccc([N+](=O)[O-])c(Cl)c2c2ccccc12`, the TGI worked out at 21.3 µM. The same measure, in the same setting: the same measure for `CN(C)c1ccc(O[Si](Oc2ccc(N(C)C)cc2)(Oc2ccc(N(C)C)cc2)Oc2ccc(N(C)C)cc2)cc1`: over 100 µM. As to `COc1ccc(-c2cc(-c3ccccc3)nc(NCCNc3ccnc4cc(Cl)ccc34)n2)cc1`, the GI50 is 1.57 µM and the TGI amounted to 3.12 µM.

In the case of `C#CC#CC#CC#CC#CC#CC#CC#CC[C@@H]1OC[C@@H](COC(=O)O[C@@H](C(=O)O[C@H]2C[C@@]3(O)[C@@H](OC(=O)c4ccccc4)[C@@H]4[C@]5(OC(C)=O)CO[C@@H]5C[C@H](O)[C@@]4(C)C(=O)[C@H](OC(C)=O)C(=C2C)C3(C)C)[C@@H](NC(=O)c2ccccc2)c2ccccc2)O1`, the GI50 is 0.448 µM and the TGI was over 33.3 µM.

In turn, `CCCCCCCc1ccc(-c2nnc(N=Nc3ccc(OCCCCC)cc3)s2)s1` yielded a TGI of over 100 µM. Regarding `COc1ccc(/C=C\c2cc(OC)c(OC)c(OC)c2)c(NS(=O)(=O)c2ccc(C(C)(C)C)cc2)c1O`, the GI50 is 6.95 µM and the TGI stood at 25.5 µM. For `Cc1cc2occ(S(=O)(=O)NC(=O)Nc3ccc(Cl)cc3)c(=O)c2c(=O)o1`, the TGI is over 100 µM. Still for that read-out and setting: the value for `CCCCCCCCCCCCCCC(C)CCC(=O)O` (configuration not stated) was over 100 µM. In the case of `CCN(CC)CCOc1ccc2c(C)c(C(=O)OC)oc2c1C(=O)/C=C/c1ccc(OC)cc1`, the GI50 was 1.37 µM and the TGI is 4.07 µM. For `COc1cc2cc3c(c(O)c2c(O)c1-c1c(OC)cc2cc4c(c(O)c2c1O)C(=O)O[C@H](C)C4)C(=O)O[C@H](C)C3` the same measures were 17.9 µM and 54.7 µM. On to `COC(=O)[C@@H]1COC(=O)N1`, for which the TGI was over 100 µM. On the same count and under the same terms, the value for `COc1cc(CCc2ccc(OC(C)=O)cc2)cc(OC)c1OC` was over 100 µM. On to `CCCCCCCCCCCCOC1C(C(CC(=O)N2CCN(Cc3ccc4c(c3)OCO4)CC2)NS(=O)(=O)c2cc(Cl)cc(Cl)c2)OC2OC(C)(C)OC21` (configuration not stated), for which the GI50 was over 100 µM and the TGI was over 100 µM. Take `CC[C@@]1(O)C(=O)OCc2c1cc1n(c2=O)Cc2c-1nc1ccccc1c2C=Nc1ccccc1N[C@@H]1c2cc3c(cc2[C@@H](c2cc(OC)c(O)c(OC)c2)[C@H]2C(=O)OC[C@@H]21)OCO3`: the GI50 is 1.52 µM and 0.348 µM; the TGI was over 42.5 µM. `Cc1ccc(-n2cc(-c3ccc(Cl)cc3)c3c(=N)n(N)cnc32)cc1`: the TGI worked out at 27.4 µM. Consider `CC(=O)[O-].[Mn+3].[O-]c1ccc(Cl)cc1C=NCCN=Cc1cc(Cl)ccc1[O-]`, for which the GI50 is over 100 µM and the TGI is over 100 µM.

`CC[C@@]12CCC(=S)N(CCSc3ccccc3)[C@@H]1c1c(n(S(=O)(=O)c3ccc(OC)cc3)c3ccccc13)CC2` had a TGI of over 100 µM. With `CCCCC[C@@H](C/C=C/CCC(=O)NC/C(=C/Cl)[C@H]1C(=O)C(C)(C)C(=O)[C@@H](C)[C@@]1(C)O)OC`, the GI50 is 27.7 µM and the TGI turned out to be 73.5 µM.

`S=c1[nH]nc(CCCCCCCCc2n[nH]c(=S)o2)o1` returned a TGI of over 100 µM.

Molecule `Cc1ncc(CSC(=N)N)n1Cc1ccccc1` came in with a TGI of over 100 µM.

The values above are taken from PubChem BioAssay (NCI).
